The other results are listed elsewhere or left out.
B1: Q9UKT9 (peptide)
chain: FTCNICGAMFTQKGNLLRHIKL
B2: Q9UKT9 (peptide)
chain: FTCNICGACFTQKGNLLRHIKL
B3: Q9UKT9 (peptide)
chain: FSCSVCGHVFTQKGNLLRHIKL
B4: Q9UKT9 (peptide)
chain: FRCSVCGHYFTQKGNLLRHIKL
B5: Q9UKT9 (peptide)
chain: LHCNQCGFMCTQKGNLLRHIKL
B6: Q9UKT9 (peptide)
chain: LRCNQCGFMCTQKGNLLRHIKL
B7: Q9UKT9 (peptide)
chain: FHCPQCGAVFTQKGNLLRHIKL
B8: Q9UKT9 (peptide)
chain: FDCSVCGHCFTQKGNLLRHIKL
B9: Q9UKT9 (peptide)
chain: FYCNQCGAIFTQKGNLLRHIKL
B10: Q9UKT9 (peptide)
chain: FACNQCGHMFTQKGNLLRHIKL
B11: Q9UKT9 (peptide)
chain: FACPICGHIFTQKGNLLRHIKL
B12: Q9UKT9 (peptide)
chain: FVCNQCGAFFTQKGNLLRHIKL
B13: Q9UKT9 (peptide)
chain: FNCPICGHCFTQKGNLLRHIKL
B14: Q9UKT9 (peptide)
chain: FVCNVCGAAFTQKGNLLRHIKL
B15: Q9UKT9 (peptide)
chain: FCCDICGAFFTQKGNLLRHIKL
B16: Q9UKT9 (peptide)
chain: FHCPICGALFTQKGNLLRHIKL
B17: Q9UKT9 (peptide)
chain: FSCNICGAHFTQKGNLLRHIKL
B18: Q9UKT9 (peptide)
chain: FCCEICGHLFTQKGNLLRHIKL
B19: Q9UKT9 (peptide)
chain: FNCEICGHYFTQKGNLLRHIKL
B20: Q9UKT9 (peptide)
chain: FMCPQCGAYFTQKGNLLRHIKL
B21: Q9UKT9 (peptide)
chain: FTCNQCGAWFTQKGNLLRHIKL
B22: Q9UKT9 (peptide)
chain: FCCPICGALFTQKGNLLRHIKL
B23: Q9UKT9 (peptide)
chain: FKCEICGRVFTQKGNLLRHIKL
B24: Q9UKT9 (peptide)
chain: FICNQCGRPFTQKGNLLRHIKL
B25: Q9UKT9 (peptide)
chain: FQCPQCGASFTQKGNLLRHIKL
B26: Q9UKT9 (peptide)
chain: FQCSVCGHMFTQKGNLLRHIKL
B27: Q9UKT9 (peptide)
chain: FVCPICGAWFTQKGNLLRHIKL
B28: Q9UKT9 (peptide)
chain: FQCEQCGADFTQKGNLLRHIKL
B29: Q9UKT9 (peptide)
chain: FKCNVCGAGFTQKGNLLRHIKL
B30: Q9UKT9 (peptide)
chain: FGCDQCGAYFTQKGNLLRHIKL
B31: Q9UKT9 (peptide)
chain: FHCNQCGAEFTQKGNLLRHIKL
B32: Q9UKT9 (peptide)
chain: FRCNQCGHVFTQKGNLLRHIKL
B33: Q9UKT9 (peptide)
chain: LCCEICGFHCTQKGNLLRHIKL
B34: Q9UKT9 (peptide)
chain: FVCPICGRHFTQKGNLLRHIKL
B35: Q9UKT9 (peptide)
chain: FFCDVCGAHFTQKGNLLRHIKL
B36: Q9UKT9 (peptide)
chain: FNCSVCGHCFTQKGNLLRHIKL
B37: Q9UKT9 (peptide)
chain: FTCNQCGHAFTQKGNLLRHIKL
B38: Q9UKT9 (peptide)
chain: FACDVCGAKFTQKGNLLRHIKL
B39: Q9UKT9 (peptide)
chain: FVCDVCGALFTQKGNLLRHIKL
B40: Q9UKT9 (peptide)
chain: LLCEICGFHCTQKGNLLRHIKL
B41: Q9UKT9 (peptide)
chain: LKCPICGFPCTQKGNLLRHIKL
B42: Q9UKT9 (peptide)
chain: FYCPICGAVFTQKGNLLRHIKL
B43: Q9UKT9 (peptide)
chain: FGCPQCGAMFTQKGNLLRHIKL
B44: Q9UKT9 (peptide)
chain: FICSVCGHKFTQKGNLLRHIKL
B45: Q9UKT9 (peptide)
chain: FCCPICGRCFTQKGNLLRHIKL
B46: Q9UKT9 (peptide)
chain: FTCNVCGAQFTQKGNLLRHIKL
B47: Q9UKT9 (peptide)
chain: FCCNQCGRTFTQKGNLLRHIKL
B48: Q9UKT9 (peptide)
chain: LHCEICGFQCTQKGNLLRHIKL
B49: Q9UKT9 (peptide)
chain: FSCPICGRSFTQKGNLLRHIKL
B50: Q9UKT9 (peptide)
chain: FRCSVCGHVFTQKGNLLRHIKL

biological target: no compound (DMSO); assay: log2 fold change of degron read counts, EGFP-low vs EGFP+ sorted cells; higher = lower degron-EGFP level without compound (poor expression or instability); settings: compound: DMSO control; 18 h
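Further: jurkat cells carrying a lentiviral library of mutant zinc finger degrons fused to EGFP plus mCherry, mCherry+ cells FACS sorted, degron abundance counted by next-generation sequencing.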

| Sequence | log2 fold change of degron read counts |
| --- | --- |
| B1 | -0.943 |
| B2 | -0.253 |
| B3 | -0.525 |
| B4 | 0.0994 |
| B5 | 0.839 |
| B6 | 1.07 |
| B7 | -0.143 |
| B8 | 0.207 |
| B9 | 1.02 |
| B10 | 0.295 |
| B11 | 0.49 |
| B12 | -0.221 |
| B13 | -0.638 |
| B14 | 0.159 |
| B15 | -0.95 |
| B16 | 0.0289 |
| B17 | 0.151 |
| B18 | -1.41 |
| B19 | -0.0124 |
| B20 | 0.0656 |
| B21 | 0.00869 |
| B22 | -0.148 |
| B23 | -3.04 |
| B24 | -0.333 |
| B25 | -0.852 |

| Sequence | log2 fold change of degron read counts |
| --- | --- |
| B26 | -0.751 |
| B27 | 0.938 |
| B28 | -2.22 |
| B29 | -0.729 |
| B30 | 0.161 |
| B31 | -1.03 |
| B32 | 0.0806 |
| B33 | -0.0205 |
| B34 | -0.368 |
| B35 | -0.726 |
| B36 | 0.163 |
| B37 | -0.662 |
| B38 | -0.72 |
| B39 | -1.4 |
| B40 | 0.0233 |
| B41 | 1.51 |
| B42 | 0.489 |
| B43 | 0.303 |
| B44 | -1.23 |
| B45 | 0.364 |
| B46 | -0.625 |
| B47 | -0.272 |
| B48 | -0.125 |
| B49 | -0.512 |
| B50 | -0.0479 |
